Results on 20 molecules are retold here after publication PMC9911399, “Two distinct binding modes provide the RNA-binding protein RbFox with extraordinary sequence specificity”.

The labels stand for the following.
T1: RBFOX1 RRM RbFoxmut (Fox-RRM*) (Homo sapiens, UniProt Q9NWB1 109-208, R118D;E147R;N151S;E152T)
T1 sequence: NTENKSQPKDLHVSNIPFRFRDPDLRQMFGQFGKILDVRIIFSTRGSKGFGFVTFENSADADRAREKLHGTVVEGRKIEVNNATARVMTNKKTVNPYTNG

B1: CUCGUUC (DNA:RNA)
RNA: GGGAGACCGGAAUUCAGAUUGUCCCUCGUUCUUAAAUCCCGUCGUAGCCACCA
DNA 1: CAATCTGAATTCCGGTCTCCC
DNA 2: TGGTGGCTACGACGGGATT
B2: GGUUGUA (DNA:RNA)
RNA: B1 RNA with C25G, U26G, C27U, G28U, U29G, C31A
DNA 1: CAATCTGAATTCCGGTCTCCC
DNA 2: TGGTGGCTACGACGGGATT
B3: AUUUGAG (DNA:RNA)
RNA: B1 RNA with C25A, C27U, G28U, U29G, U30A, C31G
DNA 1: CAATCTGAATTCCGGTCTCCC
DNA 2: TGGTGGCTACGACGGGATT
B4: GUUUGAC (DNA:RNA)
RNA: B1 RNA with C25G, C27U, G28U, U29G, U30A
DNA 1: CAATCTGAATTCCGGTCTCCC
DNA 2: TGGTGGCTACGACGGGATT
B5: UCACUUG (DNA:RNA)
RNA: B1 RNA with C25U, U26C, C27A, G28C, C31G
DNA 1: CAATCTGAATTCCGGTCTCCC
DNA 2: TGGTGGCTACGACGGGATT
B6: UGCGCAU (DNA:RNA)
RNA: B1 RNA with C25U, U26G, U29C, U30A, C31U
DNA 1: CAATCTGAATTCCGGTCTCCC
DNA 2: TGGTGGCTACGACGGGATT
B7: UCUGGGA (DNA:RNA)
RNA: B1 RNA with C25U, U26C, C27U, U29G, U30G, C31A
DNA 1: CAATCTGAATTCCGGTCTCCC
DNA 2: TGGTGGCTACGACGGGATT
B8: CGUUCUC (DNA:RNA)
RNA: B1 RNA with U26G, C27U, G28U, U29C
DNA 1: CAATCTGAATTCCGGTCTCCC
DNA 2: TGGTGGCTACGACGGGATT
B9: AGGGGGA (DNA:RNA)
RNA: B1 RNA with C25A, U26G, C27G, U29G, U30G, C31A
DNA 1: CAATCTGAATTCCGGTCTCCC
DNA 2: TGGTGGCTACGACGGGATT
B10: GGGCCCU (DNA:RNA)
RNA: GGGAGACCGGAAUUCAGAUUGUCCGGGCCCUUUAAAUCCCGUCGUAGCCACCA
DNA 1: CAATCTGAATTCCGGTCTCCC
DNA 2: TGGTGGCTACGACGGGATT
B11: GCCGCUG (DNA:RNA)
RNA: B1 RNA with C25G, U26C, U29C, C31G
DNA 1: CAATCTGAATTCCGGTCTCCC
DNA 2: TGGTGGCTACGACGGGATT
B12: AAUGUAG (DNA:RNA)
RNA: B1 RNA with C25A, U26A, C27U, U30A, C31G
DNA 1: CAATCTGAATTCCGGTCTCCC
DNA 2: TGGTGGCTACGACGGGATT
B13: CGCAAUC (DNA:RNA)
RNA: B1 RNA with U26G, G28A, U29A
DNA 1: CAATCTGAATTCCGGTCTCCC
DNA 2: TGGTGGCTACGACGGGATT
B14: GAUGCCA (DNA:RNA)
RNA: B10 RNA with G26A, G27U, C28G, U31A
DNA 1: CAATCTGAATTCCGGTCTCCC
DNA 2: TGGTGGCTACGACGGGATT
B15: CAUCGCU (DNA:RNA)
RNA: B10 RNA with G25C, G26A, G27U, C29G
DNA 1: CAATCTGAATTCCGGTCTCCC
DNA 2: TGGTGGCTACGACGGGATT
B16: UGCGCUG (DNA:RNA)
RNA: B1 RNA with C25U, U26G, U29C, C31G
DNA 1: CAATCTGAATTCCGGTCTCCC
DNA 2: TGGTGGCTACGACGGGATT
B17: UAAUAAC (DNA:RNA)
RNA: B1 RNA with C25U, U26A, C27A, G28U, U29A, U30A
DNA 1: CAATCTGAATTCCGGTCTCCC
DNA 2: TGGTGGCTACGACGGGATT
B18: UUGGCGU (DNA:RNA)
RNA: B10 RNA with G25U, G26U, C28G, C30G
DNA 1: CAATCTGAATTCCGGTCTCCC
DNA 2: TGGTGGCTACGACGGGATT
B19: UUCUGCG (DNA:RNA)
RNA: B1 RNA with C25U, G28U, U29G, U30C, C31G
DNA 1: CAATCTGAATTCCGGTCTCCC
DNA 2: TGGTGGCTACGACGGGATT
B20: CCAAUAG (DNA:RNA)
RNA: B1 RNA with U26C, C27A, G28A, U30A, C31G
DNA 1: CAATCTGAATTCCGGTCTCCC
DNA 2: TGGTGGCTACGACGGGATT

Residue numbers refer to the chain shown, from its start. The list shows a part of the results.

For the assay, the target named is T1, RBFOX1 RRM RbFoxmut (Fox-RRM*). The experiment in a line: EMSA; HiTS-Eq, 1 nM pool, 10 min; buffer printed only for the single-RNA assays: 10 mM Tris pH 7.5, 150 mM NaCl, 3.4 mM EDTA, 0.001% NP-40, 30 C. Particulars: tags: His6 N-terminal (pET28a); label: 5' 32P. The gist of the method:
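Purified wild-type or mutant RbFox RRM at increasing concentrations was equilibrated with 1 nM of 5′-radiolabelled RNA carrying 7 randomized nucleotides for 10 min in 50 µL. Unbound RNA was separated by 8% native PAGE and sequenced. Relative association constants came from read-count changes of each RNA species compared with the control reaction, normalised to the cognate motif.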
On the technique in general: In EMSA bound probe runs differently from free probe, usually more slowly.
On to B1, for which the binding signal was 0.0837 KA relative to UGCAUGU.

For B2, the binding signal is 0.256 KA relative to UGCAUGU.

Consider B3, for which the binding signal is 0.1 KA relative to UGCAUGU.

For the molecule B4, the binding signal is 0.157 KA relative to UGCAUGU.

Consider B5, for which the binding signal was 0.109 KA relative to UGCAUGU.

For the molecule B6, the binding signal is 0.0907 KA relative to UGCAUGU.

Take B7: the binding signal is 0.0496 KA relative to UGCAUGU.

Turning to B8, the binding signal is 0.0553 KA relative to UGCAUGU.

Consider B9, for which the binding signal was 0.149 KA relative to UGCAUGU.

As to B10, the binding signal is 0.0684 KA relative to UGCAUGU.

As to B11, the binding signal was 0.086 KA relative to UGCAUGU.

Take B12: the binding signal is 0.166 KA relative to UGCAUGU.

Turning to B13, the binding signal is 0.0566 KA relative to UGCAUGU.

As to B14, the binding signal is 0.072 KA relative to UGCAUGU.

Turning to B15, the binding signal was 0.113 KA relative to UGCAUGU.

With B16, the binding signal was 0.127 KA relative to UGCAUGU.

Take B17: the binding signal was 0.06 KA relative to UGCAUGU.

For the molecule B18, the binding signal was 0.145 KA relative to UGCAUGU.

Regarding B19, the binding signal is 0.135 KA relative to UGCAUGU.

For the molecule B20, the binding signal was 0.135 KA relative to UGCAUGU.
